Test results taken from the supplement of paper PMC7726561.
Over roughly 1,100 sequences, “thermal melting temperature (Tm) of peptide-HLA complex” has its median near 58; the lowest 2% begin near 42. The list shows a part of the results.

B1: unnamed (peptide)
chain: AVLPFSPAL
B2: unnamed (peptide)
chain: TLSDLRVYL
B3: unnamed (peptide)
chain: WLEENVHEV
B4: unnamed (peptide)
chain: KLQEFLQTL
B5: unnamed (peptide)
chain: WLKQEVPEV
B6: unnamed (peptide)
chain: GLSPEIHTL
B7: unnamed (peptide)
chain: SLLDGHFVL
B8: unnamed (peptide)
chain: KVLEVTEEFGV
B9: unnamed (peptide)
chain: ALNEQIARL
B10: unnamed (peptide)
chain: FMLTQPHSV
B11: unnamed (peptide)
chain: ALANGVSRI
B12: unnamed (peptide)
chain: ALAPGLPTA
B13: unnamed (peptide)
chain: ILGIQPPSV
B14: unnamed (peptide)
chain: YLYPDITRL
B15: unnamed (peptide)
chain: VLIPKLPQL
B16: unnamed (peptide)
chain: YLISQVEGHQV
B17: unnamed (peptide)
chain: ILPERFLAV
B18: unnamed (peptide)
chain: YLITGNLEKL
B19: unnamed (peptide)
chain: FLAEDPKVTL
B20: unnamed (peptide)
chain: RLSELGITQA
B21: unnamed (peptide)
chain: KLIPQLPTL
B22: unnamed (peptide)
chain: NLLTHIENV
B23: unnamed (peptide)
chain: SLDDTELRL
B24: unnamed (peptide)
chain: ALWEDEGVRA
B25: unnamed (peptide)
chain: ALERLLPQV
B26: unnamed (peptide)
chain: GLWEIENNPTV
B27: unnamed (peptide)
chain: IVIGVLHQL
B28: unnamed (peptide)
chain: SVITQVFHV
B29: unnamed (peptide)
chain: VILESDPQQVV
B30: unnamed (peptide)
chain: FLYDDNQRV
B31: unnamed (peptide)
chain: AMSNLVPPVEL
B32: unnamed (peptide)
chain: IAPPVPLKA
B33: unnamed (peptide)
chain: KLLDEAIQAV
B34: unnamed (peptide)
chain: GLIEKNIEL
B35: unnamed (peptide)
chain: SLLDPVPEV
B36: unnamed (peptide)
chain: WLAEKLPTL
B37: unnamed (peptide)
chain: RLQEEINEV
B38: unnamed (peptide)
chain: SQTFVNPHV
B39: unnamed (peptide)
chain: ALVVQVAEA
B40: unnamed (peptide)
chain: ALIDGKNFSA
B41: unnamed (peptide)
chain: ATYVFLHTV
B42: unnamed (peptide)
chain: ILEEGKEILV
B43: unnamed (peptide)
chain: YLTAFTKNL
B44: unnamed (peptide)
chain: VLIDYQRNV
B45: unnamed (peptide)
chain: YQWDDPDPRL
B46: unnamed (peptide)
chain: YGLPVVVKL
B47: unnamed (peptide)
chain: SLAQYNPKL
B48: unnamed (peptide)
chain: VLLSEQGDVKL
B49: unnamed (peptide)
chain: VLGTSNFKV
B50: unnamed (peptide)
chain: VIAEILRGV
B51: unnamed (peptide)
chain: GLLQINDKIAL
B52: unnamed (peptide)
chain: LLPSVRQEV
B53: unnamed (peptide)
chain: TLLKDAAKV
B54: unnamed (peptide)
chain: GLDRLNVTV
B55: unnamed (peptide)
chain: ALSKEGIVAL
B56: unnamed (peptide)
chain: VILDPVHSV

Each sequence was assayed against HLA-A*02:01 (assay: thermal melting temperature (Tm) of peptide-HLA complex; higher = more thermostable pHLA complex). Details: C1R-A*02:01.
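Further: cell lysates heated 10 min at 37–73 °C, remaining pHLA pulled down with pan-class I antibody, peptides quantified by DIA-MS versus 37 °C, Tm where half the complex is lost.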

Row | Sequence | thermal melting temperature [°C]
1 | B1 | 59
2 | B2 | 64.7
3 | B3 | 58.2
4 | B4 | 60.3
5 | B5 | 59.9
6 | B6 | 44.9
7 | B7 | 40.1
8 | B8 | 62.6
9 | B9 | 58.3
10 | B10 | 59
11 | B11 | 55.8
12 | B12 | 63.1
13 | B13 | 56.9
14 | B14 | 63.3
15 | B15 | 60.2
16 | B16 | 58.7
17 | B17 | 60.8
18 | B18 | 56.5
19 | B19 | 59

Row | Sequence | thermal melting temperature [°C]
20 | B20 | 59.2
21 | B21 | 61.5
22 | B22 | 60.5
23 | B23 | 60.2
24 | B24 | 52.5
25 | B25 | 59.2
26 | B26 | 60.7
27 | B27 | 43
28 | B28 | 58.7
29 | B29 | 40.1
30 | B30 | 57.5
31 | B31 | 53.7
32 | B32 | 53
33 | B33 | 62
34 | B34 | 61.4
35 | B35 | 62.5
36 | B36 | 62
37 | B37 | 55.3
38 | B38 | 57.8

Row | Sequence | thermal melting temperature [°C]
39 | B39 | 56.4
40 | B40 | 53.5
41 | B41 | 56.8
42 | B42 | 46.3
43 | B43 | 60.8
44 | B44 | 60.1
45 | B45 | 48.9
46 | B46 | 51.8
47 | B47 | 61.1
48 | B48 | 52.6
49 | B49 | 58
50 | B50 | 58.8
51 | B51 | 41.7
52 | B52 | 51.6
53 | B53 | 53.6
54 | B54 | 59.5
55 | B55 | 59.5
56 | B56 | 58.3
